# Measured values reported in ChEMBL document CHEMBL4888484, “Replenishing the malaria drug discovery pipeline: Screening and hit evaluation of the MMV Hit Generation Library 1 (HGL1) against asexual blood stage Plasmodium falciparum ,using a nano luciferase reporter read-out” (2022).
# Among all 150,000 compounds or so, about 540 (0.36%) showed an effect of 50% or more. The list shows a part of the results.
# System: Plasmodium falciparum
# Assay: Primary screen in NF54 nanoGlo assay, in single point, at 2uM, 72h; a lower Z score goes with more inhibition
# Assay type: functional, Erythrocyte
# Settings: timepoint 72 hour
Structure (SMILES),% Inhibition [%],Z score
COc1ccc(C(=O)N2CCC3(CC[C@@H]3OC)CC2)cc1F,-13,1.62
O=C(CCCc1cn[nH]c1)NCc1cscn1,11,-1.55
COc1cc(CN2CCC(NC(=O)C3CCC(F)(F)C3)C2)cc(OC)c1 (stereo not drawn),-4,0.84
Nc1cc(N2CCC(c3nccn3Cc3cscn3)CC2)ncn1,-1,0.15
O=S1(=O)CCC[C@H](NS(=O)(=O)c2cccc3c2N=S=N3)C1,-18,2.29
COc1cc(C)c(-c2cccc(C(=O)N3C[C@@H]4[C@@H](CN(C)C)[C@@H]4C3)c2)cn1,-6,0.81
CN(CCCc1ccco1)c1ccc(-c2nc(-c3cccc(F)c3)no2)cn1,-9,1.06
O=C(NCc1cccnc1N1CCOCC1)c1c[nH]nn1,-3,0.6
Cc1cccc2[nH]c(COCC(=O)N[C@@H](C)C3=CCCCC3)nc12,-14,1.45
Cc1nn(-c2ccccc2)c2c1CN(C(=O)Nc1ccc3c(c1)OCO3)[C@H](c1cccc(Cl)c1)c1cccn1-2,-8,1.41
CN(CCCN(C)c1cnn(C)c1)c1cnn(C)c1,-12,2.26
CC(NC(=O)N1CCC(CS(C)(=O)=O)C1)C1COc2ccccc21 (stereo not drawn),-11,1.37
O=C(NCc1cn(-c2ccsc2)nn1)c1c(F)cccc1F,-9,1.42
CC(=O)c1ccc(NC(=O)Cc2c(C)nn(-c3ccc(C(F)(F)F)cn3)c2C)cc1,-6,0.87
COc1cccc(-c2ccc(N3CCCN(C(=O)CN(C(=O)C(C)C)C(C)C)CC3)nn2)c1,-26,3.68
Cc1cc(C(=O)N(C)Cc2ccc(Br)o2)no1,-13,1.7
Cc1cc(C)c2[nH]c(C(=O)N3CCCOCC3)c(C)c2c1,-4,0.59
CC(C)c1nc([C@H]2CCCN(c3ccc4nnnn4n3)C2)no1,-8,1.66
CC(=O)NCCc1cn(Cc2nc(-c3cccc(Cl)c3)oc2C)cn1,-20,2.19
O=C(Cn1nc2c(N3CCN(c4ccccc4)CC3)nccn2c1=O)Nc1ccc2c(c1)OCO2,-23,2.19
CCCCCC(=O)Nc1ccc([C@H]2OCC(=O)N[C@@H]2CO)cc1,31,-3.56

Structure (SMILES),% Inhibition [%],Z score
CC1CN(CC2CCN(C(=O)c3ccc(Oc4ccccc4)cc3)CC2)CC(C)O1 (stereo not drawn),-2,0.19
O=C(NCCOc1ccccc1)Nc1ccc(N2CCCC2=O)cc1,-4,0.66
CN1CCC([C@H]2OCC[C@@H]2c2nc(N(C)C)no2)CC1,1,-0.12
C=C1C(C)(C)[C@@H]2CC[C@@]1(C(=O)NC1(C(=O)O)CCC1)C2,-15,1.98
O=C(c1ccc2ncsc2c1)N1CCN(CCn2cccn2)CC1,-11,2.17
O=C(O)c1ccccc1CN1CCN(c2nc(-c3ccccc3)no2)CC1,-4,0.8
COC[C@H]1C[C@@H](NC(=O)Nc2ccc3c(c2)OCCO3)[C@H](O)[C@@H]1O,16,-1.84
CNC(=O)CCOC(=O)c1ccc(Cl)c(Cl)c1,-10,1.47
CNS(=O)(=O)c1ccc(N)cc1C,-3,0.47
CC(=O)NC(C)(C)C[C@H](C)N1CCc2[nH]nc(C)c2C1,5,-0.69
CCCCn1c(N2CCC[C@H](C(=O)N3CCCC3)C2)nc2ccccc21,-17,2.02
Cc1noc(C)c1C(C)(C)NC(=O)c1nccnc1N,-4,0.46
Cc1nc(CCNC(=O)c2n[nH]c3c2CCC3)nc2c1CCCC2,-6,0.8
COC(OC)C(=O)N1CCN(S(=O)(=O)CC(C)C)CC1,0,-0.01
Cc1cc(C(=O)CN2CCCC[C@H]2C(=O)N2CCOCC2)c(C)[nH]1,-3,0.3
COCCC(=O)NCCn1c(C)cnc1C1CC1,-4,0.81
Cc1cnc(CN2CC[C@H](O)CC(C)(C)C2)cn1,7,-0.67
CCNC(=O)NCCOC(=O)C1CCCC1,-16,2.21
COc1ccc(NC(=O)CC2(C(=O)O)Cc3ccccc3C2)cc1Cl,-10,0.83
CCOC(=O)c1ccc(Nc2ccc(F)c(N3CCCC3=O)c2)nc1,9,-0.74
Cc1c(CNCc2cccnc2Oc2ccc(F)c(F)c2)cnn1C,-9,1.16

Structure (SMILES),% Inhibition [%],Z score
O=C(Nc1cccc(-c2nnsc2Cl)c1)[C@H]1CCCO1,-7,1.3
O=C(Cn1nnnc1CN1CCCCCC1)NCCCc1ccccc1,-1,0.24
CC1(C)O[C@@H]2C[C@@](OCc3ccc(F)cc3F)(C(=O)NCCCn3ccnc3)CC(OCc3ccc(C#N)cc3)[C@@H]2O1 (stereo partly drawn),-17,1.54
COc1ccccc1C(=O)Nc1c(C(=O)Nc2ccc3c(c2)OCO3)oc2ccccc12,-3,0.49
CC(C)Cc1noc(CN(C)C(=O)Cn2sc3ccccc3c2=O)n1,3,-0.31
CC(C)S(=O)(=O)N(C)C(=O)c1cccc(CC#N)c1,-8,0.84
CCOc1cccc(CN(C)c2cc([C@H]3C[C@H](N)C3)nc(COC)n2)c1,-10,1.72
CCN1CCC[C@H](CN(C)S(=O)(=O)c2cc(-c3cc(C(F)(F)F)on3)oc2C)C1,-21,2.16
Cc1nn(CC(C)C)c(C)c1S(=O)(=O)NC(=O)C(C)C,-5,0.66
CC(Cc1cccc(F)c1)C(=O)N1CCCCC1C(=O)N1CCOCC1 (stereo not drawn),-9,1.34
CCc1cc(C(=O)Nc2ccccc2F)c2c(C3CC3)nn(-c3ccc(F)cc3)c2n1,6,-0.97
COC[C@H]1CCN(C(=O)CCS(=O)(=O)c2ccccc2)C1,-13,2.23
C[C@@H](C(=O)N1Cc2cccnc2C1)c1ccccc1,-2,0.22
O=C(NCCc1cccc(Cl)c1)N1CC[C@@H](O)[C@@H](O)C1,-2,0.3
CN(C)C(=O)CC1CCN(Cc2cc(-c3ccccc3)on2)CC1,-6,1.31
O=S(=O)(c1ccc(Br)cc1)N1CCOC1,-4,0.71
CCCCN1C(=O)CN(C2CCC(C)CC2)C(=O)[C@@H]1c1ccc(OC(C)C)c(OC)c1 (stereo partly drawn),6,-0.88
CCc1ccc([C@@H]2CCCN2Cc2nnc(C(C)C)o2)o1,1,-0.1
N#CCCN(C(=O)COC(=O)C1CCCCC1C(=O)N1CCc2ccccc21)c1ccccc1 (stereo not drawn),-8,1.4
Cc1nc(CN(C)Cc2cccn2-c2ccc(Cl)cn2)no1,-13,1.6
CC(C)Cn1c(-c2ccc(C#N)cc2)nnc1N1CCN(C(C)C)CC1,-4,0.69

Structure (SMILES),% Inhibition [%],Z score
OCc1cccc(NCc2ccc(OC(F)(F)[C@H](F)C(F)(F)F)cc2)n1,-10,1.75
C[C@H](CC(=O)O)CC(=O)NCCc1ccccc1,27,-3.05
CCCN(CCC)C(=O)c1oc2ccccc2c1NC(=O)C1CCCCC1,5,-0.51
O=C(N[C@H](C(=O)O)C1CC1)c1nc(C2CC2)n(-c2ccccc2)n1,6,-0.85
Cc1c(NC(=O)CN(C)CCc2ccccn2)cnn1C,-5,0.83
Cc1c(C(=O)C2CC2)cnc2cc3c(cc12)OCO3,-1,0.13
C[C@@H](C(=O)NC(N)=O)N(C)Cc1ccc(F)c(F)c1,-3,0.54
Cc1noc(C)c1S(=O)(=O)N(C)C[C@H]1Cc2ccccc2CO1,5,-0.62
NC(=O)C1(NC(=O)C2Cc3ccccc3C2)CCCC1,4,-0.4
CCN1C(=O)c2cc(NC(=O)CCc3ccccc3)ccc2Oc2ccccc21,-11,1.92
OCc1cc2n(n1)CCN(c1cc(C(F)(F)F)nc(N3CCCC3)n1)C2,-2,0.42
Cc1nnc2ccc(N3CCCN(S(=O)(=O)c4ccc5c(c4)CCC(=O)N5)CC3)nn12,-13,1.52
O=C(Nc1cccc(-n2cncn2)c1)N1CCC(F)(F)CC1,-24,2.2
C[C@](O)(CNC(=O)Nc1nc2n(n1)CCCC2)c1cccc(F)c1,-4,0.73
O=C(NCc1ccc(-c2ccco2)o1)NC1CCCC1,7,-0.99
N#Cc1cc2c([nH]c1=O)CCN(C(=O)c1nc3ccccc3s1)C2,-9,1.42
O=C(Nc1ccccc1)C1C2CCC(C2)N1C(=O)c1ccccc1 (stereo not drawn),11,-1.23
CCOC(=O)N1CCN(c2nc(CN3CCCC[C@@H]3COC)nc3c(C)cccc23)CC1,-4,0.56
Cc1nn2cnnc2c(C)c1Cc1c(F)cccc1Cl,-5,0.71
O=c1[nH]c(CCN2CCc3c(Cl)cc(Cl)cc3C2)nc2ccccc12,4,-0.76
Cc1ccc(CNC(=O)[C@H]2CC2(C)C)nc1C,0,-0.05
